Test results from paper PMC4176178.
Where a chain is given by its changes, count along the chain named. These are yes or no findings as the source states them, for the method shown. In cells and extracts the contact can be indirect. Some entries that bind do so weakly or less than the wild type. For part of these data: Where a sequence is shown, tags or fusion partners need not be part of it.

By UniProt entry, the sequences of proteins in these tests, tags left out.
UniProt P11940: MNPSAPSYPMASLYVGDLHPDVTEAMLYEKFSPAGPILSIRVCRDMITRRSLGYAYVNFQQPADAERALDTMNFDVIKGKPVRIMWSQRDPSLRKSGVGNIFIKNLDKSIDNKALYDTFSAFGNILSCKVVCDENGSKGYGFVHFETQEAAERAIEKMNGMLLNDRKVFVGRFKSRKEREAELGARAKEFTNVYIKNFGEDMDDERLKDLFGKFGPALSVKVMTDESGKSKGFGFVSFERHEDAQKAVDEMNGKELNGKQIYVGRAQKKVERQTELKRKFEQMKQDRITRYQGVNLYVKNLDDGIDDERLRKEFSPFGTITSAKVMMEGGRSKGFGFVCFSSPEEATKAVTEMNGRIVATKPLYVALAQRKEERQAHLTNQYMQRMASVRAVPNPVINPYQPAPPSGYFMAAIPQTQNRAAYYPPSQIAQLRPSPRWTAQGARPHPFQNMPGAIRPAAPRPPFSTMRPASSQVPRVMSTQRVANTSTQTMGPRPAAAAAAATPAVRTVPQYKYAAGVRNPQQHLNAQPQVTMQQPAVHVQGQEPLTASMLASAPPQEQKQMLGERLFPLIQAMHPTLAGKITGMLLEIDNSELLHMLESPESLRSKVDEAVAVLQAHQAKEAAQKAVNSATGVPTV
UniProt P06730: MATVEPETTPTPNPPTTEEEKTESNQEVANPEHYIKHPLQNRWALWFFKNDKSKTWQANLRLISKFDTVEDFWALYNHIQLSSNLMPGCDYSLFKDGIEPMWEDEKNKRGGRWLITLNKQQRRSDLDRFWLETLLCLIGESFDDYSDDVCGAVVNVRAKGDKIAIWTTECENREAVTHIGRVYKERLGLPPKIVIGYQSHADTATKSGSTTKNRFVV

Tests used:
[1] = biological target: T1, GST-Pdcd4 (full-length human Pdcd4 fused to GST) (human) (UniProt Q53EL6); assay: pull-down; GST fusion proteins on glutathione sepharose, incubated with extract of transfected cells (QT6 fibroblasts) in ELB buffer, 1 h at 4 °C; western blotting against the Myc or Flag tag; only the target purified
T1 sequence: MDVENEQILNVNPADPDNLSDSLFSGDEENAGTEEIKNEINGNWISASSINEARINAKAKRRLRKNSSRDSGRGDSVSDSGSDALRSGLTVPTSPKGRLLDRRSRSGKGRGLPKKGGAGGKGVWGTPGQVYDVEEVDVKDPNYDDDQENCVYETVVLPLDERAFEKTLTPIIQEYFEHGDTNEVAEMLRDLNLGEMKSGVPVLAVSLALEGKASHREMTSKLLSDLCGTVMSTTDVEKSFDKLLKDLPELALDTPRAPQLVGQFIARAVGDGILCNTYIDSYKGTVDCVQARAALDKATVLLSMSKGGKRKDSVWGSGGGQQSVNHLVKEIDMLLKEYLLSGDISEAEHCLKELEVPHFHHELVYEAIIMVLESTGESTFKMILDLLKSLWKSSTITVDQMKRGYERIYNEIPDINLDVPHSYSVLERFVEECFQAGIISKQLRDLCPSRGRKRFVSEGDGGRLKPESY

GST-Pdcd4 ΔRBD (human) = biological target: T2, GST-Pdcd4 ΔRBD (human) (UniProt Q53EL6); assay: as above
T2 sequence: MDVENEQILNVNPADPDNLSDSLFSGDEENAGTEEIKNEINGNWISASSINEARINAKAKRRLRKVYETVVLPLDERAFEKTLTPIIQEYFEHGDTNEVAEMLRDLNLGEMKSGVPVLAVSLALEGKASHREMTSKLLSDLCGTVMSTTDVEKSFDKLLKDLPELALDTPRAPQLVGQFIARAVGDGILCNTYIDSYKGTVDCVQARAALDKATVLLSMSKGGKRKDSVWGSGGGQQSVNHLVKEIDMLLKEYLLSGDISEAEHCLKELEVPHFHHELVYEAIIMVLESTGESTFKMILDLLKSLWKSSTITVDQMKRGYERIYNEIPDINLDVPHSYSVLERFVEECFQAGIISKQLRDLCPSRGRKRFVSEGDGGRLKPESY

[2] = biological target: T3, GST-Pdcd4-K114A/K115A (human) (UniProt Q53EL6); assay: as above
T3 sequence: T1 sequence with K114A, K115A

[3] = biological target: T4, GST-Pdcd4-RBDstop (only the N-terminal RNA-binding domain of human Pdcd4) (human) (UniProt Q53EL6); assay: as above
T4 sequence: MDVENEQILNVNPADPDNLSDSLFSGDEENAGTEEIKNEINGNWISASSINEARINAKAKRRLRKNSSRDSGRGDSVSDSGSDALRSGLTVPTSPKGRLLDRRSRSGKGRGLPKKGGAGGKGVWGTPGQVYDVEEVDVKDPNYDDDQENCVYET

[4] = biological target: T5, GST-Pdcd4-V123A/W124A (human) (UniProt Q53EL6); assay: as above
T5 sequence: T1 sequence with V123A, W124A

GST-Pdcd4-mut4 (human) [5] = biological target: T6, GST-Pdcd4-mut4 (human) (UniProt Q53EL6); assay: pull-down; data not shown: GST-Pdcd4-mut4 with cell extract, binding of eIF4G and eIF4E; only the target purified
T6 sequence: T1 sequence with E249A, D253A, D414A, D418A

[6] = biological target: T7, Pdcd4 (endogenous, HEK293 cell extract) (human (endogenous in HEK293)) (UniProt Q53EL6); assay: co-IP; extract of untransfected HEK293 cells precipitated with rabbit antiserum against Pdcd4 or pre-immune serum; western blotting for PABP
T7 sequence: T1 sequence

[7] = biological target: T1, GST-Pdcd4 (full-length human Pdcd4 fused to GST) (human); assay: pull-down; GST proteins immobilised on glutathione sepharose, incubated with HEK293 cell extract (endogenous proteins), 1 h at 4 °C, ELB buffer; western blotting; also done in the absence or presence of 0.5 μg/ml RNase A; only the target purified
GST-Pdcd4-mut4 (human) [8] = biological target: T6, GST-Pdcd4-mut4 (human); assay: as above

## Myc-tagged human PABP (from UniProt P11940 1-636)
[1]
  binding: binds
GST-Pdcd4 ΔRBD (human)
  binding: no binding
[2]
  binding: no binding
[3]
  binding: binds
[4]
  binding: no binding

## eIF4E (endogenous, HEK293 cell extract) (from UniProt P06730 1-217)
GST-Pdcd4-mut4 (human) [5]
  binding: binds

## poly(A)-binding protein (PABP), endogenous, HEK293 cell extract (from UniProt P11940 1-636)
[6]
  binding: binds
[7]
  binding: binds
GST-Pdcd4-mut4 (human) [8]
  binding: binds
